Source: publication PMC4336329 (PLoS ONE, 2015)
The whole screen tested about 310,000 compounds, of which about 2,200 (0.71%) showed an effect of 50% or more. The effect is printed as a negative number. Some of the results follow.

target: human ether-à-go-go-related gene (hERG) potassium channel (human, UniProt Q12809); assay: primary screen, population patch clamp on CHO cells stably expressing hERG
Sequence (Q12809 whole entry, looked up): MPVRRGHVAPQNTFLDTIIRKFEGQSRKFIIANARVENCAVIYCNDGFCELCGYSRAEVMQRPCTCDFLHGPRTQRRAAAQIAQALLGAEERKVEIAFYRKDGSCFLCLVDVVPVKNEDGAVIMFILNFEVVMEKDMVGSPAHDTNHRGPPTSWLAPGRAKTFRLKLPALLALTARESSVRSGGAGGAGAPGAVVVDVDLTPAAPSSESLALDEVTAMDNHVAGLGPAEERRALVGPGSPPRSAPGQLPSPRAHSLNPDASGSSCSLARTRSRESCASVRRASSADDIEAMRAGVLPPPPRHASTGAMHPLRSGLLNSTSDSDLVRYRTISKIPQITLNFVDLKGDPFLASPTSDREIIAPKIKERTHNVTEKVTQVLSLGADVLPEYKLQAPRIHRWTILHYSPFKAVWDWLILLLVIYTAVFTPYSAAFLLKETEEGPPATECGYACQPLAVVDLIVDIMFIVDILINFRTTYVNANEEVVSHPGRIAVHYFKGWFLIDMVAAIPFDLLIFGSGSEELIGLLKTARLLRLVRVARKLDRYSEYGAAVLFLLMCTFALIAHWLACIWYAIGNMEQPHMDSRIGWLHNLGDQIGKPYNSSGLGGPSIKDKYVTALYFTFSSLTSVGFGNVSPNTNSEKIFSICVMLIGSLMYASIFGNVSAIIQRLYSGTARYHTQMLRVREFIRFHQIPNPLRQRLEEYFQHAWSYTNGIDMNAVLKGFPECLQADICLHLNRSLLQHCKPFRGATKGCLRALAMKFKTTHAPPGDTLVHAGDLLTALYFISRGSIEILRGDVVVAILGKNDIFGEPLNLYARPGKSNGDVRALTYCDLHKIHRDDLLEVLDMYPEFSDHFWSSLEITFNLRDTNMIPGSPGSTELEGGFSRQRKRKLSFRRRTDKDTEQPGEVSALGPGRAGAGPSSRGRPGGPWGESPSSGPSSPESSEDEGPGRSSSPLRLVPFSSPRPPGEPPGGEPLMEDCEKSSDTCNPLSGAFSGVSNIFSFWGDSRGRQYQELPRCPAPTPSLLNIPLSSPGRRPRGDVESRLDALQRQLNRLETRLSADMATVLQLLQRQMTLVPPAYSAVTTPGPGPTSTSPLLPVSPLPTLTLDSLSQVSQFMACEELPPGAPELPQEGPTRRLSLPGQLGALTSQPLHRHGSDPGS

Row | SMILES | hERG current change (%, negative = inhibition) at 1uM [%]
1 | COc1cccc(CNC(=O)c2cc3c(cc2Cl)N2CCCCCC2=NS3(=O)=O)c1 | 2.12
2 | N#Cc1c(-c2ccc(Br)cc2)cc(-c2cccnc2)nc1N | 5.3
3 | CCc1nnc(NC(=O)CCN2C(=O)/C(=C/c3cc(OC)c(OC)c(OC)c3)SC2=S)s1 | 11.6
4 | O=C(CN1C(=O)NC2(CCCC2)C1=O)Nc1cccc(Cl)c1 | 9.16
5 | COc1ccc(Cc2c(O)nc(SCC(=O)N3CCCCCC3)[nH]c2=O)cc1 | 9.8
6 | O=C(COc1ccc(Cl)cc1)NCc1ccccc1 | -3.37
7 | CC1(OC(=O)c2cccs2)C(=O)C=C2C=C(C3CC3)OC=C2C1=O (stereo not drawn) | 13.7
8 | C=CCNC(=S)Nc1sc2c(c1C#N)CCCC2 | 10.6
9 | O=C(CSc1ccc(-c2cccnc2)nn1)Nc1ccc(F)c(F)c1 | -0.104
10 | O=C(Nc1ccc([N+](=O)[O-])cc1)C1COc2ccccc2O1 (stereo not drawn) | 7.07
11 | O=C(NCCc1ccccc1F)C1CCCN(c2nc3ccccc3s2)C1 (stereo not drawn) | 9.71
12 | CCC(C)NCCCOc1ccc(C)cc1OC (stereo not drawn) | 9.42
13 | CCOC(=O)C(NCCc1ccc(F)cc1)(NC(=O)CC)C(F)(F)F (stereo not drawn) | -0.198
14 | Cc1cc(C)cc(NC(=S)N(C)C)c1 | 4.19
15 | O=S(=O)(c1ccc2ccccc2c1)N1CCNCC1 | 11.7
16 | CC1CCCN(C(=O)COC(=O)c2ccc[nH]c2=O)C1 (stereo not drawn) | 16.7
17 | CCCC(C(=O)NC1CCCC1)N(CCCN1CCOCC1)C(=O)c1snc(C(N)=O)c1N (stereo not drawn) | 3.18
18 | CC(C)CC(=O)c1c[nH]c(C(=O)NCc2ccc(F)cc2)c1 | 6
19 | CC(=Nc1ccccc1)C1=C(O)CSC1=O | 3.32
20 | NCc1ccccc1COc1ccccc1.O=C(O)/C=C\C(=O)O | 4.75
21 | C[C@@H]1CCC[C@]2(O[C@@H](CCO)C[C@@H](O)[C@@H]2O)O1 | 14
22 | COc1ccc(S(=O)(=O)N[C@@H](C)C(=O)OCC(=O)Nc2cc3oc4ccccc4c3cc2OC)cc1 | 8.11
23 | c1csc(-c2cnc3ccccc3n2)c1 | 7.39

Row | SMILES | hERG current change (%, negative = inhibition) at 1uM [%]
24 | CCN(CC)CC(=O)Nc1c2c(nc3ccccc13)N(C)CC2.O=C(O)C(=O)O | 11.7
25 | CCc1noc(C)c1C(=O)NC1CCCc2c1cnn2-c1ccc(C(C)(C)C)cc1 (stereo not drawn) | 12.6
26 | Cc1n[nH]c(C)c1S(=O)(=O)N1CCC(C(=O)N2CCn3c2nc2ccccc23)CC1 | 6.09
27 | O=C(Nc1nc(-c2ccc(-c3ccccc3)cc2)cs1)C1=COCCO1 | 8.8
28 | Cc1ccc(-c2nc(Nc3cccc(O)c3)c3ccccc3n2)cc1 | 9.92
29 | CC(C)C(CCNC1CCN(C)CC1)c1ccc(Cl)cc1 (stereo not drawn) | 4.43
30 | COC(=O)c1cn(NC(=O)c2ccc(F)cc2)c(=O)c2ccccc12 | 19.2
31 | C[N+](C)(C)CCOC(=O)CBr.[Br-] | 12.2
32 | COc1ccc(CN2CCNC(=O)C2CC(=O)NCc2csc(C(C)C)n2)c(OC)c1 (stereo not drawn) | 2.91
33 | O=C(OCC(=O)N1CCCCCC1)c1ccc(Cl)c(S(=O)(=O)N2CCCC2)c1 | 3.94
34 | COc1ccc(CN(CCN)C2CC(C)N(C)CC2C)cc1.Cl (stereo not drawn) | 4.93
35 | Cc1[nH]c2ccccc2c1C(=O)COC(=O)C1CCC1 | -4.21
36 | COc1ccc(OC)c(Nc2cc(C(=O)NCCCN3CCOCC3)c3ccccc3n2)c1 | 6.03
37 | Cc1ccc2cccc(S(=O)(=O)N3CCN(c4ccccc4F)CC3)c2n1 | 5.56
38 | O=C(NC1CCCCC1)NC1CCN(C(=S)NCc2ccco2)CC1 | -0.608
39 | CC(=O)Nc1oc(-c2cccc3ccccc23)nc1C#N | 7.54
40 | CC(C)Oc1c(Br)cc(Br)cc1/C=N/NC(N)=S | 15.7
41 | COc1ccc(NC(=O)c2ccc(NC(=O)COC(=O)c3cnc(C)cn3)cc2)cc1 | 4.02
42 | O=C(NCCCn1ccnc1)C(Cl)(Cl)Cl | 9.89
43 | CCCCn1nc(C(=O)Oc2ccc3c(C)cc(=O)oc3c2)c2ccccc2c1=O | 1.16
44 | O=C(CN(C(=O)CCC(=O)Nc1nccs1)c1cccc(F)c1)NCC1CCCO1 (stereo not drawn) | 5.97
45 | CC1(C)CC(=O)C(CC(=O)Nc2cc(C(F)(F)F)ccc2Cl)C(=O)C1 | -0.58
46 | CCn1c(SCC(=O)Nc2cc(OC)ccc2OC)nc2c(c1=O)SCC2 | 13.5

Row | SMILES | hERG current change (%, negative = inhibition) at 1uM [%]
47 | Cc1ccc(S(=O)(=O)N2[C@@H](c3cccc(Cl)c3)C(C(=O)O)=CC[C@H]2c2ccc3c(c2)OCO3)cc1 | 15.2
48 | Nc1ccc2oc3ccccc3c2c1 | 5.01
49 | O=C(OCc1cnc(Cl)s1)c1ccccc1Cl | -0.356
50 | CN(C)C(=S)Nc1ccc([N+](=O)[O-])cc1 | 5.28
51 | Cc1ccc2c(c1)CC(C)N2S(=O)(=O)c1nnc(NC(=O)CC(C)C)s1 (stereo not drawn) | 23.3
52 | CNC(=O)CSCc1cnn(-c2ccccc2)c1-n1cccc1 | 9.61
53 | O=C(NCCCn1ccnc1)c1cc(S(=O)(=O)N2CCOCC2)c(Cl)cc1Cl | 8.28
54 | COc1ccccc1Nc1ncc(C(=O)N2CCC(C(N)=O)CC2)c2ccccc12 | 6.37
55 | Cc1noc(C)c1C(=O)N1CCCC(C(=O)c2cccc(OC(C)C)c2)C1 (stereo not drawn) | 9.16
56 | COc1ccnc(-n2cccc2/C=N/O)c1C#N | 10.7
57 | CC(C)C(=O)Nc1ccc(-c2csc(-c3ccccc3)n2)cc1 | -0.458
58 | CCn1c(=O)c([N+](=O)[O-])c(N2CCN(Cc3ccc4c(c3)OCO4)CC2)c2ccccc21 | 10.5
59 | CC(C)(C)OC(=O)N[C@@H](CC(=O)OCc1ccccc1)C(=O)O | 8.44
60 | Cc1cc[n+](CC[n+]2ccc(C)cc2)cc1.[Br-] | 6.78
61 | CCc1nnc(NC(=O)CSc2nnc(CNc3ccc(F)cc3)n2C2CCCCC2)s1 | 3.42
62 | O=C(Nc1cccc(-c2cccc(Cl)c2)c1)C1CCN(CC2CCOC2)CC1 (stereo not drawn) | -15
63 | Cc1cccc(NC(=O)c2ccc(NC(=O)CC3SC(N4CCCC4)=NC3=O)cc2)n1 (stereo not drawn) | 11.7
64 | COC(=O)c1cc2occc2n1CC(=O)Nc1ccc(OC)c(OC)c1OC | 11.1
65 | O=C(Nc1cccnc1Cl)c1cccs1 | 17.2
66 | c1ccc(OCc2noc(CN3CCC(C4CCCCC4)C3)n2)cc1 (stereo not drawn) | 10.6
67 | CCc1c(O)nc(SCC(=O)N2CCc3cc(OC)c(OC)cc3[C@@H]2C)[nH]c1=O | -0.368
68 | CCCCCC(=O)Nc1nc2ccccc2[nH]1 | 9.51
69 | CN(C)S(=O)(=O)N1CCCN(S(=O)(=O)N(C)C)CC1 | -3.87

Row | SMILES | hERG current change (%, negative = inhibition) at 1uM [%]
70 | Cc1ccc(C(=O)N/C(=C\c2cccs2)C(=O)N2CCN(C)CC2)cc1C | -77.2
71 | O=C(Nc1cccc2ccccc12)OC1C=CS(=O)(=O)C1 (stereo not drawn) | 11.7
72 | CC(NC1CCCCC1)C(=O)NN=C(c1ccccc1)c1ccccc1 (stereo not drawn) | 13
73 | [O-][n+]1cccc2ncc3cscc3c21 | 15.3
74 | COc1ccc(S(=O)(=O)N(Cc2cc3cc(C)ccc3[nH]c2=O)CC2CCCO2)cc1 (stereo not drawn) | -1.03
75 | CN(C)C(=O)N1CCC(C(=O)NC2CCCCCCC2)CC1 | 9.2
76 | NS(=O)(=O)c1ccc(NC(=O)COC(=O)c2ccco2)cc1 | 15.2
77 | O=C(c1cc(C(=O)c2ccco2)cc(C(=O)c2ccco2)c1)c1ccco1 | 11.8
78 | O=[N+]([O-])c1cc(Cl)ccc1N1CCCC1 | 9.55
79 | Cc1cc(N/N=C\c2ccccc2)nc(-c2ccccc2O)n1 | 13.4
80 | CCN(CC)c1ccc2c(C)c(CN3CCOCC3)c(=O)oc2c1 | 9.3
81 | O=C(CCC1CCCN(C(=O)c2ccc(F)c(F)c2)C1)N1CCN(c2ccccn2)CC1 (stereo not drawn) | 7.98
82 | Cn1c(CNC(=O)C(C)(C)C)nc2ccccc21 | -5.61
83 | Cc1[nH]n(-c2cccc(Cl)c2)c(=O)c1C=NC12CN3CN(CN(C3)C1)C2 | 1.89
84 | O=C(NC(c1ccc(Cl)cc1)P(=O)(Oc1ccccc1)Oc1ccccc1)OCc1ccccc1 (stereo not drawn) | 9.57
85 | O=C(NCCCN1CCCCC1)c1ccc2c(=O)n(CCc3ccccc3)c(=O)[nH]c2c1 | -7.22
86 | O=C(NCCCN1CCCC1=O)c1cccc(NS(=O)(=O)c2ccc(Br)cc2)c1 | 3.02
87 | COc1cc2c(cc1OC)C1=C(C#N)CCC(=NC(=O)c3ccco3)N1CC2 | 19.1
88 | COc1ccc(S(=O)(=O)CC(=O)c2cc3cc(Br)ccc3oc2=O)cc1 | 1.37
89 | Cn1nc(C(=O)N2CCN(C(c3ccccc3)c3ccccc3)CC2)c2ccccc2c1=O | 2.3
90 | COc1cccc(C(=O)NCC(=O)N/N=C/c2cccc(OC(=O)c3ccc([N+](=O)[O-])cc3)c2)c1 | 7.67
